From the RNAGym collection of RNA variant scans (doi:10.1093/nar/gkz1192)
The source gives no read counts; variants with many changes may rest on few reads.

B1: CPEB3 Ribozyme (parent)
chain: UAACAGGGGGCCACAGCAGAAGCGUUCACGUCGCAGCCCCUGUCAGAUUCUGGUGAAUCUGCGAAUUCUGCUGUAUAUCUC

Variants of: B1
Test: self-cleavage, relative activity (ratio to wild type); higher = more cleavage; in vitro, sequencing
Method in brief: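 Barcoded CPEB3 ribozyme mutants, produced by rounds of error-prone PCR, self-cleaved while being transcribed with T7 RNA polymerase for 5 hours at 37°C and during a subsequent 15 min DNase I step before EDTA was added. Sequencing of template-switched cDNA on Illumina gave cleaved and total reads, and DNA sequencing assigned barcodes to variants. Each variant's relative activity is its cleaved/total read fraction divided by the unmutated ribozyme's fraction, averaged across three batches. A variant needed a minimum of 5 reads.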

Row | Variant | self-cleavage
1 | UAACAGGGGGCCACAGCAGAAGCGUUCACGUAGCAGCCCCCGUCAGAUUCUGGUGGUUCUGCGAAUUCUACUGCAUAUCUC | 0.1
2 | UAACAGGGGGCCACAGCAGAAGCGUUCACGUAGCAGCCCCCGCCAGAUUCUGGUGAAUCUGCGAAUUCUGCUGUAUAUCUC | 0.07
3 | UAACAGGGGGCCACAGCAGAAGCGUUCACGUAGCAGCCCCCGUCAGAUUCAGGUGAAUCUGCAAAUUCUGCUGCAUAUCUC | 0.12
4 | UAACAGGGGGCCACAGCAGAAGCGUUCACGUAGCAGCCCCUGCCGGAUUCCGGUGAAUCUGCGAACUCUGCUGUAUACCAC | 0.06
5 | UAACAGGGGGCCACAGCAGAAGCGUUCACGUAGCAGCCCCUGCCAGACUCUGGUGAAUCUGCGAAUUCUGCUGUAUAACUC | 0.15
6 | UAACAGGGGGCCACAGCAGAAGCGUUCACGUAGCAGCCCCUGCCAGAUUCCGGUGAAUCUGCGAAUUCUGCUGUAUAUCUC | 0.24
7 | UAACAGGGGGCCACAGCAGAAGCGUUCACGUAGCAGCCCCUGCCAGAUUCUGGUGAAUCUGCGAAUUCAGCUGUGUAUCUC | 0.28
8 | UAACAGGGGGCCACAGCAGAAGCGUUCACGUAGCAGCCCCUGUCAGACUCCGGUGAAUCUGCGAAUUCUGCUGUAUAUCUC | 0.28
9 | UAACAGGGGGCCACAGCAGAAGCGUUCACGUAGCAGCCCCUGUCAGAUUCCGGUGGAUCUGCGAAUUCUGCUGUAUAUCUC | 0.12
10 | UAACAGGGGGCCACAGCAGAAGCGUUCACGUAGCAGCCCCUGUCAGAUUCCGGUGAGUCUGCGAACUCUGCUGCAUACCUC | 0.05
11 | UAACAGGGGGCCACAGCAGAAGCGUUCACGUAGCAGCCCCUGUCAGAUUCUGGCGAAUCUGCGAAUUCUGCAGUAUAUCUC | 0.28
12 | UAACAGGGGGCCACAGCAGAAGCGUUCACGUAGCAGCCCCUGUCAGAUUCUGGUGAAACUGCGAACUCUGCUGUAUGUCUC | 0.18
13 | UAACAGGGGGCCACAGCAGAAGCGUUCACGUAGCAGCCCCUGUCAGAUUCUGGUGAAUCAGCAAAUUCUGCUGUAUAUCUC | 0.19
14 | UAACAGGGGGCCACAGCAGAAGCGUUCACGUAGCAGCCCCUGUCAGAUUCUGGUGAAUCAGCGAAUUCUGCUGUACAUCUC | 0.37
15 | UAACAGGGGGCCACAGCAGAAGCGUUCACGUAGCAGCCCCUGUCAGAUUCUGGUGAAUCCGCGAAUACUGCUGUAUAUCUC | 0.12
16 | UAACAGGGGGCCACAGCAGAAGCGUUCACGUAGCAGCCCCUGUCAGAUUCUGGUGAAUCCGCGAAUUCUGCUGUAUACUUC | 0.24
17 | UAACAGGGGGCCACAGCAGAAGCGUUCACGUAGCAGCCCCUGUCAGAUUCUGGUGAAUCUGCGAAUUCUGCAGUAUACCUC | 0.13

Row | Variant | self-cleavage
18 | UAACAGGGGGCCACAGCAGAAGCGUUCACGUGGCAGCCCCUGUCGGACUCUGGUGAAUCUGCGAAUUCCCCUGUAUACCUC | 0.09
19 | UAACAGGGGGCCACAGCAGAAGCGUUCACGUGGCAGCCCCUGUCUGAUUCUGGUGAAUCUGCGAAUACUGCUGUAUAUCUC | 0.14
20 | UAACAGGGGGCCACAGCAGAAGCGUUCACGUGGCAGACCCUGUCAGAUUCUGGUGAAUCUGCGAAUCCUGCUGUAUAUCUC | 0.1
21 | UAACAGGGGGCCACAGCAGAAGCGUUCACGUGGCAGGCCCUGUCAGAUUCUGGUGAAUCUGCGAAUCCUGCUGUAUAUCUC | 0.16
22 | UAACAGGGGGCCACAGCAGAAGCGUUCACGUGGCAGCCCCUGCCAGAUUCUGGUGAGUCUGCGAAUUCUGCUGUAUAUCUC | 0.09
23 | UAACAGGGGGCCACAGCAGAAGCGUUCACGUGGCAGCCCCUGUCAGAAUCUGGAGAAUCUGCGAAUUCUGCAGUAUAUCUC | 0.12
24 | UAACAGGGGGCCACAGCAGAAGCGUUCACGUGGCAGCCCCUGUCAGAUUCUGGGGAAUCUGCGAAUUCUGCCGCAUAUCUC | 0.08
25 | UAACAGGGGGCCACAGCAGAAGCGUUCACGUUGCCGCCCCAGUCCGAUUCUGGUGAAUCUGCGAAUUCUGCUGUAUAUCUC | 0.09
26 | UAACAGGGGGCCACAGCAGAAGCGUUCACGUUGCGGCCCUGGUCAGAUUCUGGUGAAUCUGCGGAUACUGCUGUAUAUCUC | 0.06
27 | UAACAGGGGGCCACAGCAGAAGCGUUCACGUUGCGGCCCCCGUCAGAUACAGGUGUAUCUGCGAAUUCUGCUGUAUAUCUC | 0.14
28 | UAACAGGGGGCCACAGCAGAAGCGUUCACGUUGCUGCCCCUGUCAGAUUCUGGUGAGUCUGCGAAUUCUGCUGUAUAUCUC | 0.18
29 | UAACAGGGGGCCACAGCAGAAGCGUUCACGUUGCAGCCCCUGUCUGAUUCUGGUGAGUCUGCGAAUUCUGCUGUAUAUCUC | 0.15
30 | UAACAGGGGGCCACAGCAGAAGCGUUCACGUUGCAGCCCCUGUCAGGUUCUGGUGAAUCUGCGAAUUCUGCUGUAUUUCUC | 0.29
31 | UAACAGGGGGCCACAGCAGAAGCGUUCACGUUGCAGCCCCUGUCAGGCUCUGGUGAAUCUGCGUAUUCUGCUGUAUAUCUC | 0.11
32 | UAACAGGGGGCCACAGCAGAAGCGUUCACGUUGCAGCCCCUGUCAGAUUCUGGUGGAUCUGCGAAUUCCGCUGUAUAUCUC | 0.11
33 | UAACAGGGGGCCACAGCAGAAGCGUUCACGUUGCAGCCCCUGUCAGAUUCUGGUGAGUCUGCGAAUUCUGCUGUAUAUCCC | 0.11
34 | UAACAGGGGGCCACAGCAGAAGCGUUCACGUUGCAGCCCCUGUCAGAUUCUGGUGAAUCUGCGAAUUCUGCUGUGUGUCUC | 0.14
